The campaign covered roughly 2,000 compounds. About 110 (5.5%) showed an effect of 50% or more. The list shows a part of the results.
Biological target: Genome polyprotein (dengue virus type 2) (UniProt P29990)
[1] = Thailand/16681/1984, Concentration 25.0 uM, Number of replicates 1.0

## Cn1ccnc1[C@H]1CCCN(c2nc(N)nc3[nH]ccc23)C1
Thailand/16681/1984, Concentration 49.5 uM, Number of replicates 2.0, Standard deviation 1.3833087982807808 %
  inhibition: -1.02%
Thailand/16681/1984, Concentration 99.01 uM, Number of replicates 2.0, Standard deviation 2.5265541576501263 %
  inhibition: -0.984%
Thailand/16681/1984, Concentration 198.0 uM, Number of replicates 2.0, Standard deviation 1.980296651267403 %
  inhibition: -0.547%

## Cc1ccc(NC(=O)C2CCN(c3ccc(C=O)cc3)CC2)c(Br)c1
[1]
  inhibition: 15.3%

## O=Cc1ccc(N2CCC(C(=O)Nc3c(F)cc(Br)cc3F)CC2)cc1
[1]
  inhibition: 11.1%

## COC(=O)c1c[nH]c(-c2ccccc2C(=O)Nc2cnn(C)c2)c1
Thailand/16681/1984, Concentration 49.5 uM, Number of replicates 2.0, Standard deviation 4.6959836114984075 %
  inhibition: -3.99%
Thailand/16681/1984, Concentration 99.01 uM, Number of replicates 2.0, Standard deviation 3.634509710514387 %
  inhibition: -4.57%
Thailand/16681/1984, Concentration 198.0 uM, Number of replicates 2.0, Standard deviation 4.5675250537856 %
  inhibition: -3.67%

## C[C@@H](NC(=O)c1cc(Cl)ccc1NS(=O)(=O)c1ccc(Oc2ccccc2Cl)cc1)[C@H]1CCCO1
Thailand/16681/1984, Concentration 49.5 uM, Number of replicates 2.0, Standard deviation 0.29635236214386457 %
  inhibition: 82.5%
Thailand/16681/1984, Concentration 99.01 uM, Number of replicates 2.0, Standard deviation 0.052507555399236044 %
  inhibition: 84.4%
Thailand/16681/1984, Concentration 198.0 uM, Number of replicates 2.0, Standard deviation 0.13838732262418607 %
  inhibition: 80.7%

## N[C@@H]1CC[C@H](NC(=O)[C@@H](NC(=O)OCc2ccccc2)c2ccc(OCc3ccccc3)cc2)C1
Thailand/16681/1984, Concentration 49.5 uM, Number of replicates 2.0, Standard deviation 1.2434035121264484 %
  inhibition: -8.26%
Thailand/16681/1984, Concentration 99.01 uM, Number of replicates 2.0, Standard deviation 0.8566380677318021 %
  inhibition: -6.19%
Thailand/16681/1984, Concentration 198.0 uM, Number of replicates 2.0, Standard deviation 2.0731918457206886 %
  inhibition: 3.51%

## CN1CCN(c2ccc(CCNS(=O)(=O)c3ccc(F)cc3)cc2)CC1
Thailand/16681/1984, Concentration 49.5 uM, Number of replicates 2.0, Standard deviation 0.7996821653533323 %
  inhibition: -1.41%
Thailand/16681/1984, Concentration 99.01 uM, Number of replicates 2.0, Standard deviation 0.7245815652705206 %
  inhibition: -0.422%
Thailand/16681/1984, Concentration 198.0 uM, Number of replicates 2.0, Standard deviation 1.3286313097517835 %
  inhibition: 0.775%

## CN(Cc1ccccc1)Cc1cccc(NC(=O)c2ccc3c(c2)B(O)OC3)c1
Thailand/16681/1984, Concentration 49.5 uM, Number of replicates 2.0, Standard deviation 2.1199690313026864 %
  inhibition: 0.247%
Thailand/16681/1984, Concentration 99.01 uM, Number of replicates 2.0, Standard deviation 1.45611694434521 %
  inhibition: -1.12%
Thailand/16681/1984, Concentration 198.0 uM, Number of replicates 2.0, Standard deviation 3.0656800379431695 %
  inhibition: 1.49%

## Cc1cc(CO)c2cccc(NCc3ccc(S(N)(=O)=O)cc3)c2n1
Thailand/16681/1984, Concentration 49.95 uM, Number of replicates 2.0, Standard deviation 1.2377055953825635 %
  inhibition: 8.26%
Thailand/16681/1984, Concentration 99.9 uM, Number of replicates 2.0, Standard deviation 1.691711110367126 %
  inhibition: 17.2%

## CSCC[C@H](NC(=O)OC(C)(C)C)C(=O)N1CCC[C@H]1C(=O)Nc1cccc(CN)c1
Thailand/16681/1984, Concentration 49.5 uM, Number of replicates 2.0, Standard deviation 1.5173934729468572 %
  inhibition: -0.275%
Thailand/16681/1984, Concentration 99.01 uM, Number of replicates 2.0, Standard deviation 1.5126097634940223 %
  inhibition: 0.43%
Thailand/16681/1984, Concentration 198.0 uM, Number of replicates 2.0, Standard deviation 2.114878998554874 %
  inhibition: 1.09%

## Cc1cc(CO)c2cccc(NC(=O)C3CCC(CN)CC3)c2n1 (configuration not stated)
Thailand/16681/1984, Concentration 49.95 uM, Number of replicates 2.0, Standard deviation 1.7984525560806044 %
  inhibition: 96%
Thailand/16681/1984, Concentration 99.9 uM, Number of replicates 2.0, Standard deviation 0.012834221133749364 %
  inhibition: 98.2%

## CC(C)(C)OC(=O)N1CCOC[C@H]1CNCc1nnc2ccccn12
Thailand/16681/1984, Concentration 49.5 uM, Number of replicates 2.0, Standard deviation 3.6636813935617547 %
  inhibition: -2.66%
Thailand/16681/1984, Concentration 99.01 uM, Number of replicates 2.0, Standard deviation 2.060655687099608 %
  inhibition: -2.48%
Thailand/16681/1984, Concentration 198.0 uM, Number of replicates 2.0, Standard deviation 3.020799081222525 %
  inhibition: -1.72%

## O=Cc1ccc(N2CCC(C(=O)Nc3ccc(C(F)(F)F)cc3[N+](=O)[O-])CC2)cc1
[1]
  inhibition: 13.7%

## O=Cc1ccc(N2CCC(C(=O)Nc3ccc(-n4cccn4)cc3)CC2)cc1
[1]
  inhibition: 12.6%

## O=Cc1ccc(N2CCC(C(=O)NCc3ccc(C(F)(F)F)nc3)CC2)cc1
[1]
  inhibition: 14.9%

## O=C(N[C@H]1CCNC1=O)c1cc(Cl)ccc1NS(=O)(=O)c1ccc(Oc2ccccc2Cl)cc1
Thailand/16681/1984, Concentration 49.5 uM, Number of replicates 2.0, Standard deviation 0.36576586141779044 %
  inhibition: 30.3%
Thailand/16681/1984, Concentration 99.01 uM, Number of replicates 2.0, Standard deviation 0.2318278972972024 %
  inhibition: 51.8%
Thailand/16681/1984, Concentration 198.0 uM, Number of replicates 2.0, Standard deviation 0.7755829345495912 %
  inhibition: 18.9%

## O=Cc1ccc(N2CCC(C(=O)NCc3nc(-c4ccccn4)no3)CC2)cc1
[1]
  inhibition: 14.7%

## O=C(NCc1ccc2[nH]cnc2c1)[C@@]1(c2ccc(F)cc2)CCCNC1
Thailand/16681/1984, Concentration 50.0 uM, Number of replicates 2.0, Standard deviation 0.8036935759540536 %
  inhibition: 1.49%
Thailand/16681/1984, Concentration 100.0 uM, Number of replicates 2.0, Standard deviation 0.5451893366540629 %
  inhibition: 0.924%
Thailand/16681/1984, Concentration 200.0 uM, Number of replicates 2.0, Standard deviation 0.16529100472784208 %
  inhibition: 1.69%

## Cc1cc(CO)c2cccc(Cc3cccc(NC(=O)c4cccc(Cn5cncn5)c4)c3)c2n1
Thailand/16681/1984, Concentration 49.95 uM, Number of replicates 2.0, Standard deviation 0.03445572300723204 %
  inhibition: -2.36%
Thailand/16681/1984, Concentration 99.9 uM, Number of replicates 2.0, Standard deviation 1.2505418184916173 %
  inhibition: 1.37%
